We go through 43 compounds from PMC4336329 (PLoS ONE, 2015).

The campaign covered roughly 310,000 compounds. About 14,000 (4.5%) showed an effect of 50% or more. The effect is printed as a negative number. The list shows a part of the results.
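Further: peak tail current of the secondary pulse compared with the same well before compound.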

The target of this assay is human ether-à-go-go-related gene (hERG) potassium channel (human, UniProt Q12809). The assay is described as follows: primary screen, population patch clamp on CHO cells stably expressing hERG.
Chain of human ether-à-go-go-related gene (hERG) potassium channel (Q12809 whole entry, looked up): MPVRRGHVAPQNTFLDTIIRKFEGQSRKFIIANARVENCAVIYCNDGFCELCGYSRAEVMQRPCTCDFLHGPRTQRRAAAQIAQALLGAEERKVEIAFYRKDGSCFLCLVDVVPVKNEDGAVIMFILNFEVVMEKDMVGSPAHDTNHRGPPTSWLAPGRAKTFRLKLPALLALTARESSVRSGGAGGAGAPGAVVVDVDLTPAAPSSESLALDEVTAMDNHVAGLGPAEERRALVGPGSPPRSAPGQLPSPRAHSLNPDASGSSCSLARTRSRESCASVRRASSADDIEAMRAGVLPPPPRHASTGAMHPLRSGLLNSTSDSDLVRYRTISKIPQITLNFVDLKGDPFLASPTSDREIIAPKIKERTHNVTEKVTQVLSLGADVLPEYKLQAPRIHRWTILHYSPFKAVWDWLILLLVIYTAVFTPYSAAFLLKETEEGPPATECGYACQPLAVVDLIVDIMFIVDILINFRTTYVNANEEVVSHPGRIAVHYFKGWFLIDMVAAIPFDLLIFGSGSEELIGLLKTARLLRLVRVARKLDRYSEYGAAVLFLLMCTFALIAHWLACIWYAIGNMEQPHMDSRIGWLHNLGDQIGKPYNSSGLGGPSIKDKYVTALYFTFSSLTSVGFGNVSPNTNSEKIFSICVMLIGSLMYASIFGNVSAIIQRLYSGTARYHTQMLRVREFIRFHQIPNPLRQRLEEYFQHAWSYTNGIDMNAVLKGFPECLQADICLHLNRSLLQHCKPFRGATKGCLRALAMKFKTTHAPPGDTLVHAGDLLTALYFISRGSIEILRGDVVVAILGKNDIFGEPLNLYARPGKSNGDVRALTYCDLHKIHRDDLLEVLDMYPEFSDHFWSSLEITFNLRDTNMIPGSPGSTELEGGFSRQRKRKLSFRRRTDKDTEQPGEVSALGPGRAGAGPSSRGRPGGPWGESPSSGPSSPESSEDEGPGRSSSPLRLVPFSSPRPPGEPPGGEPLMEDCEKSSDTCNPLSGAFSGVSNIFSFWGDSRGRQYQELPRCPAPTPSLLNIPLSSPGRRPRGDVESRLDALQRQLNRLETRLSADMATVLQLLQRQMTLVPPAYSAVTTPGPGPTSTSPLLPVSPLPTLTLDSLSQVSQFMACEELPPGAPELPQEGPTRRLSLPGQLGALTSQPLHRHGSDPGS
Consider `CCCC(C(=O)NCC1CCCO1)N(Cc1ccco1)C(=O)CNS(=O)(=O)c1ccc(F)cc1` (stereo not shown), for which the “hERG current change (%, negative = inhibition) at 10uM” value is on record as -1.21%.
With `CN(C)S(=O)(=O)c1cccc(NC(=O)COC(=O)CCSc2ccc(Cl)cc2)c1`, the “hERG current change (%, negative = inhibition) at 10uM” value is recorded as -15.5%.
With `O=[N+]([O-])CC(=Nc1ccc(F)cc1)N/N=C\c1oc(O)c2ccccc12` the figure was -0.338%; with `Cc1ccc(S(=O)(=O)N2CCC(C(=O)N3CCN(c4ccccn4)CC3)CC2)cc1`, -19.4%.
As for `CC(C)=C(NC(=O)c1ccccc1)C(=O)N/N=C(\C)c1ccccc1O`, the “hERG current change (%, negative = inhibition) at 10uM” value was 35.7%.
As to `O=C(CN(C(=O)CNC(=O)c1ccco1)c1cccc(F)c1)NC1CCCCC1`, the “hERG current change (%, negative = inhibition) at 10uM” value was found to be 4.58%.
For `C=CCn1c(SCC(=O)N(CC)C2CCS(=O)(=O)C2)nc2ccccc2c1=O` (stereo not shown) the value was -79.2%; for `Cc1c(C(=O)N(CC(C)C)c2c(N)n(Cc3ccccc3)c(=O)[nH]c2=O)sc2nc3n(c(=O)c12)CCC3`, 7.27%; for `Cc1cc2[nH]c(=O)c(=O)[nH]c2cc1S(=O)(=O)N(C)C1CCCCC1`, 19.9%.
Take `CN(C)C(=S)NC(C)(C)C`: the “hERG current change (%, negative = inhibition) at 10uM” value was 4.89%.
For `Cc1cc(C)c2oc(C(=O)N(Cc3cccs3)C3CCS(=O)(=O)C3)cc(=O)c2c1` (stereo not shown) the value was -15.1%; for `O=C(CNC(=O)c1ccco1)N/N=C/c1cccs1`, 14.9%.
With `CCNC(=S)N=Nc1c(O)[nH]c2ccc([N+](=O)[O-])cc12` the figure was -7.01%; with `Clc1cccc(/C(Cc2nc3ccccc3[nH]2)=N\Nc2ccccc2)c1`, 22.1%; with `CCc1ccc(C(=O)COC(=O)C(CCSC)NC(=O)C23CC4CC(CC(C4)C2)C3)cc1` (stereo not shown), 10.9%.
With `COCCNC(=O)C(=O)NNC(=O)CCc1ccccc1` the figure was 8.78%; with `CCCCCN(C(=O)CCC(=O)OCC(=O)c1cccc(OC)c1)c1c(N)n(CCCC)c(=O)[nH]c1=O`, -64.6%; with `CCCCCCC[C@H](N)[C@H](O)C(=O)N(C)[C@@H](CCS(C)=O)C(=O)N[C@@H](Cc1ccc(O)cc1)C(=O)N[C@@H](Cc1ccc(O)cc1)C(=O)O` (stereo partly shown), 8.09%.
On to `COc1ccccc1CNC(=O)COC(=O)c1ccc(Cl)c(N)c1`, for which the “hERG current change (%, negative = inhibition) at 10uM” value is given as 21.8%.
For `Nc1nnc(SCC(=O)OCc2ccccc2)s1` the value was 9.61%; for `CN1c2ccc([N+](=O)[O-])cc2CC2(C(=O)NC(=O)NC2=O)C1c1ccccc1` (stereo not shown), 1.14%.
With `Cc1noc(C)c1COC(=O)c1ccc2c(c1)OCCO2` the figure was -13.8%; with `COCCn1c(SCC(=O)NCc2ccco2)nnc1C(C)C`, 20.4%.
With `CCOC(=O)c1ccc(OCc2nc(-c3cccs3)no2)cc1` the figure was -1.94%.
Regarding `Cc1ccc(C(=O)Nc2nc3ccccc3c(=O)s2)cc1`, the “hERG current change (%, negative = inhibition) at 10uM” value was 15.9%.
For `COCCCNC(=O)CN1CCN(Cc2ccccc2Cl)C1=O` the value was 27.2%.
For `Cc1cccc2c1OCC/C2=N\NC(=O)COc1ccccc1Cl` the value was 17.2%.
For `Cc1cc(C(=O)Cn2nnc3ccccc3c2=O)c(C)n1-c1c(C)n(C)n(-c2ccccc2)c1=O` the value was 4.69%; for `CCCNC(=O)N1CCN(c2ncccn2)CC1`, 10.4%.
Regarding `CCOC(=O)N1CCN(c2c(Nc3cc(C)[nH]n3)c(=O)c2=O)CC1`, the “hERG current change (%, negative = inhibition) at 10uM” value is given as 9.42%.
For `Cc1c(C(=O)N2CCCCC2)c(S(=O)(=O)NCc2ccc(F)cc2)c(C)n1C` the value was 7.64%; for `Cc1cc(COc2ccccc2OCc2cc(C)no2)on1`, 6.73%.
For `COc1ccc(C2/C(=C(/O)c3ccccc3)C(=O)C(=O)N2CCO)cc1` (stereo not shown) the value was -21.1%.
For `COCCn1c(CN2CCN(c3cccc(Cl)c3)CC2)nc2c1c(=O)n(C)c(=O)n2C` the value was -53.9%.
In the case of `Cc1cc([N+](=O)[O-])nn1CC(=O)N(C)Cc1ccccc1`, the “hERG current change (%, negative = inhibition) at 10uM” value is listed as 13.7%.
With `Cc1nc2ccc(C(=O)Nc3ccc(N(C)C)cc3)cc2s1`, the “hERG current change (%, negative = inhibition) at 10uM” value was determined as 6.94%.
On to `Cc1cc(C)c2nc(-c3ccccn3)cc(C(=O)NCc3ccco3)c2c1`, for which the “hERG current change (%, negative = inhibition) at 10uM” value came to 11.2%.
With `Oc1ccc2nnc3c(Br)cnn3c2c1` the figure was 19.2%; with `O=C(c1cc(F)c(F)cc1Cl)N1CCN(CCc2ccccc2)CC1`, -71.6%.
For `O=C(CSc1nnc(SCc2ccc(Cl)cc2)s1)N/N=C/c1ccccc1C(=O)O` the value was 4.17%.
For the compound `Cc1ccc(-n2c(C)cc(C(=O)COc3cccnc3[N+](=O)[O-])c2C)cc1`, the “hERG current change (%, negative = inhibition) at 10uM” value was 11.2%.
For `C[C@]12C(=O)N(c3ccc(Br)cc3)C(=O)N1[C@@H]1c3ccccc3OC[C@@H]1[C@H]2c1ccccc1` the value was 33.6%.
For `O=C(NC(=O)c1ccccc1)Nc1ccccc1O` the value was 14.7%.
